Reference: the supplement of paper PMC12067230
The data scatter; read single values as rough.

Assay: amyloid nucleation score relative to library mode (yeast Sup35 reporter selection) (log enrichment difference); higher = more amyloid nucleation; sequences are the first 22 residues of the Bri2 peptide extended by up to 12 random residues
Conditions: random library (experiment): 1;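 active = nucleation score significantly above 0 at FDR 0.05; inactive = not significantly above 0 or absent from output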
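Further: [psi-pin-] Saccharomyces cerevisiae expressing SupN fusions, induced by 100 µM Cu2SO4, selected 7 d at 30 °C without adenine and uracil, scored by deep sequencing of output versus input.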

Sequence | amyloid nucleation score
EASNCFAIRHFENKFAVETLICYGVSCDKRFSRE | 3.9
EASNCFAIRHFENKFAVETLICISLIGS | 4.74
EASNCFAIRHFENKFAVETLICVALRGPGTWNAA | inactive
EASNCFAIRHFENKFAVETLICHVKQKFMGDTLF | 1.7
EASNCFAIRHFENKFAVETLICIGQRS | inactive
EASNCFAIRHFENKFAVETLICCTSCSVVVFSPY | 6.44
EASNCFAIRHFENKFAVETLICGRG | -0.0479
EASNCFAIRHFENKFAVETLICTRQ | 1.33
EASNCFAIRHFENKFAVETLICDGECRPVTNRSR | inactive
EASNCFAIRHFENKFAVETLICDAYPRLVASCAC | inactive
EASNCFAIRHFENKFAVETLICESFVSGVFTLGT | 6.11
EASNCFAIRHFENKFAVETLICGLNMVSMFEFFR | inactive
EASNCFAIRHFENKFAVETLICCYRLVFTVCRTG | 0.591
EASNCFAIRHFENKFAVETLICDRT | inactive
EASNCFAIRHFENKFAVETLICDNESWWSEPSRS | inactive
EASNCFAIRHFENKFAVETLICCDMLYEWMQS | 0.674
EASNCFAIRHFENKFAVETLICPIWCL | 8.42
EASNCFAIRHFENKFAVETLICWCNRTDPLRSIG | inactive
EASNCFAIRHFENKFAVETLICYYGIPHGCCYQW | 5.43
EASNCFAIRHFENKFAVETLICGQCVCSCRVSER | 8.08
EASNCFAIRHFENKFAVETLICLSWCVPRPESR | 5.38
EASNCFAIRHFENKFAVETLICKMGNNK | inactive
EASNCFAIRHFENKFAVETLICCSVIRT | 7.67
EASNCFAIRHFENKFAVETLICARIGTLVKPAGG | inactive

Sequence | amyloid nucleation score
EASNCFAIRHFENKFAVETLICPVAGERPSAIGR | inactive
EASNCFAIRHFENKFAVETLICVVRMACRINNRS | inactive
EASNCFAIRHFENKFAVETLICRLAVTYQGNQWT | inactive
EASNCFAIRHFENKFAVETLICRIP | inactive
EASNCFAIRHFENKFAVETLICDRKLYSE | inactive
EASNCFAIRHFENKFAVETLICTTYKMPIAHVQF | inactive
EASNCFAIRHFENKFAVETLICVRGEVGKVWRRT | inactive
EASNCFAIRHFENKFAVETLICLVNGLETWTVAR | 5.96
EASNCFAIRHFENKFAVETLICYSLTRWQSTKVP | inactive
EASNCFAIRHFENKFAVETLICLVVAP | inactive
EASNCFAIRHFENKFAVETLICWRHG | inactive
EASNCFAIRHFENKFAVETLICIMVCFILMHHHA | inactive
EASNCFAIRHFENKFAVETLICAWAQQSEAWGER | 2.58
EASNCFAIRHFENKFAVETLICGRMIDPGRLLRV | inactive
EASNCFAIRHFENKFAVETLICLIQDCLFEEQLR | 2.91
EASNCFAIRHFENKFAVETLICRYQM | 2.81
EASNCFAIRHFENKFAVETLICRVETVSRGWCTW | 2.41
EASNCFAIRHFENKFAVETLICRKN | inactive
EASNCFAIRHFENKFAVETLICVPLLYRRRAETG | 3.83
EASNCFAIRHFENKFAVETLICVVWWCKNVCVLI | inactive
EASNCFAIRHFENKFAVETLICVSFGTLFKSDKT | 8.26
EASNCFAIRHFENKFAVETLICGGDGAVVKGDRP | inactive
EASNCFAIRHFENKFAVETLICMVVGRMRWVCRC | -0.755

Same assay, conditions: random library (experiment): 2

Sequence | amyloid nucleation score
EASNCFAIRHFENKFAVETLICDCHNWCHSCMHG | 8.34
EASNCFAIRHFENKFAVETLICCKIYVTFSIWTS | inactive
EASNCFAIRHFENKFAVETLICFFLWYCMIVKST | inactive
EASNCFAIRHFENKFAVETLICHASRTFWLIEIW | inactive
EASNCFAIRHFENKFAVETLICCFWHSSPSWTSQ | 9.11
EASNCFAIRHFENKFAVETLICCTVWHIVFRSW | 6.12
EASNCFAIRHFENKFAVETLICNSMFGKLSLLTW | inactive
EASNCFAIRHFENKFAVETLICVGASLEDGGFVV | inactive
EASNCFAIRHFENKFAVETLICVFFCHDF | 7.14
EASNCFAIRHFENKFAVETLICVCRFVVVTMHLL | inactive
EASNCFAIRHFENKFAVETLICAGIMNFMVLWG | inactive
EASNCFAIRHFENKFAVETLICPWIVPSLNDALL | inactive
